# Experimental data taken from the supplement of paper PMC3334620.
# The full ranking holds about 33,000 sequences; the median of “E-score (-0.5 to 0.5)” is about -0.012, and the highest 2% start at about 0.29. The list shows a part of the results.
# Target: T1, Ybr033w (UniProt P38073)
# T1 sequence: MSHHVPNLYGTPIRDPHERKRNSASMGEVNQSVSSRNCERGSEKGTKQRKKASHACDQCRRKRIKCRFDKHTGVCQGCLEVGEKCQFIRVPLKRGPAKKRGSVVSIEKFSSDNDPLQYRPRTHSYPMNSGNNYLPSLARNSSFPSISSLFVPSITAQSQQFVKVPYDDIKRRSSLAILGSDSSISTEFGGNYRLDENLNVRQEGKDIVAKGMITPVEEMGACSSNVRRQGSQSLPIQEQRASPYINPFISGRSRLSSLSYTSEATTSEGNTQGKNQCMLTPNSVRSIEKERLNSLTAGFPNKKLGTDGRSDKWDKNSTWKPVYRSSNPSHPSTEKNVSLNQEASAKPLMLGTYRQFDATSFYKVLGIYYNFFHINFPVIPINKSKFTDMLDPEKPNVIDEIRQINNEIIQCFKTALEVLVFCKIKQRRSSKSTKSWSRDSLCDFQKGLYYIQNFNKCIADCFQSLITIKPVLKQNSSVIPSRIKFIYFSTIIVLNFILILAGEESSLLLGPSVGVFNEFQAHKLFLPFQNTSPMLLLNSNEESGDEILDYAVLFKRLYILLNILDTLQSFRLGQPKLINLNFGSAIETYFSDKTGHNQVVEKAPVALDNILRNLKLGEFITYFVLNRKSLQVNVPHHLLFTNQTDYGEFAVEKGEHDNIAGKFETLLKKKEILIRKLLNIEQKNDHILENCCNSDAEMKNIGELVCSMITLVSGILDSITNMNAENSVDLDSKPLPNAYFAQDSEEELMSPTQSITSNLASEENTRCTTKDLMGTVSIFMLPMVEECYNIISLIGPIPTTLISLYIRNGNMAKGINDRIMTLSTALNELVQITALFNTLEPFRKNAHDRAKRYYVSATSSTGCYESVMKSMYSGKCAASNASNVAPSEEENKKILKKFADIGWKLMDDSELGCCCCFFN
# Test: PBM E-score (8-mer binding enrichment) (E-score (-0.5 to 0.5)); higher = stronger / more preferred TF binding; most listed sequences are background and not binding sites
# Details: protein concentration: 200 nM; construct: GST-full length
# Method in brief: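 E-scores (a modified Wilcoxon-Mann-Whitney statistic) were assigned by the Universal PBM Analysis Suite to every ungapped eight-base word pooled with its reverse complement. The input came from universal all-10-mer Agilent arrays made double-stranded by primer extension and probed with GST-tagged yeast transcription factors at about 100-200 nM. Fluorescent anti-GST detected bound protein, and masliner normalised the scans.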
row,Sequence,PBM E-score
1,CGACCGCA,-0.0166
2,AGCTGTAG,0.0316
3,ATGTGGGG,-0.246
4,GGTAGAAC,-0.0448
5,GCCCCCAA,-0.251
6,ACATTGGT,0.13
7,GAGGTGGC,-0.207
8,ACTATAAG,0.169
9,GATTCATA,0.0364
10,CAAAGAGG,-0.0846
11,CTAGGAGC,-0.284
12,CAATAGCC,-0.0498
13,AATCGACT,0.0161
14,CCTAGCAA,0.0864
15,ACGTGACT,-0.145
16,TGGTTCAA,0.16
17,CCTCGCTC,0.0674
18,GACACGAC,-0.0129
19,AATCGTAG,0.131
20,CGTCCCAC,-0.127
21,ACACGCGC,-0.0704
22,CTAAGGCA,-0.099
23,GAGTTGCA,-0.0795
24,CTCGAATA,-0.144
25,ATGCACCG,0.0243
26,AAAGAATT,0.0904

row,Sequence,PBM E-score
1,CCGCACAA,0.0236
2,GTTGACAA,0.167
3,CTGCCCAA,-0.138
4,CACAGGTG,-0.0211
5,ATACGTGC,-0.058
6,AACTACCC,0.0868
7,AAGGTAGA,-0.0181
8,AGATTTAA,0.106
9,CAGTGACC,-0.186
10,CCTGCAAA,0.00163
11,GCTACTGA,-0.0376
12,GAAAGAAA,0.18
13,GTAGGGTA,0.0576
14,AACGGTAA,0.0679
15,ACTCCCGA,0.0167
16,TACAAGAA,0.189
17,GTAAGCAC,-0.0452
18,CTAGTCAC,0.103
19,CCGGGCTA,-0.131
20,AGTCTACG,-0.0895
21,CAGGGTAG,-0.19
22,AGCAACAC,0.0825
23,GGTCCACC,-0.2
24,GTCCAGAC,-0.308
25,AGCTATCA,0.147
26,GAGCATTA,0.122

row,Sequence,PBM E-score
1,AGGAACGC,-0.13
2,CTTTCGGA,-0.105
3,CTGAGCCC,-0.108
4,ATCTCCTA,0.0115
5,CTCTCTAA,-0.124
6,CAATAGAA,0.0692
7,AGGTCTCC,-0.204
8,ACTACACC,-0.181
9,ACTACGGG,-0.232
10,GCCTGAGC,-0.311
11,ACGTGCAC,-0.163
12,ATGGGGGG,-0.226
13,GTGGCAAA,-0.0397
14,ACAACTGT,0.106
15,CTAGCATC,0.0319
16,AAGAGCTC,-0.196
17,CGGGACGC,-0.181
18,ACCCGATC,-0.174
19,CACCTAGG,-0.2
20,AAGTGCAG,-0.127
21,AATTTGGG,0.234
22,ACTGCGAG,-0.0835
23,AGTGCCTA,-0.032
24,AACTCGAC,0.167
25,AGAGCGCA,-0.161
26,ATCCCAAT,-0.0376

row,Sequence,PBM E-score
1,AGTCAATC,0.0631
2,AAGAGGGT,-0.109
3,GTTAAGGA,0.121
4,AGTAATTG,0.129
5,ACTGGGCT,-0.166
6,CTTGCCTA,-0.0748
7,AGACTGAC,-0.0184
8,ATGTATAG,0.201
9,CGCGTCCC,-0.19
10,ATTGCCTA,-0.147
11,AGTTCGTC,0.0866
12,CTGCGTCA,-0.079
13,CACCGGCA,-0.0593
14,AGGCTTCG,-0.0656
15,GATCTTAA,0.117
16,ACGCTCCG,-0.196
17,ACGAGATC,-0.0123
18,GCACGCGC,-0.171
19,GATCTTAC,0.0169
20,AGCGAGCG,-0.0336
21,GATATTAA,0.251
22,GACACGTC,-0.291
23,CTTCAAGA,0.12
24,AACTTTAG,0.187
25,CGACATGC,0.00015
26,AGTTACGA,0.199

row,Sequence,PBM E-score
1,AGGCGGAC,-0.121
2,AATACACG,-0.074
3,AGCCCTCC,-0.27
4,CGAGGCGA,-0.0647
5,GCTGAAGC,-0.0698
6,AAGCTCAA,0.1
7,CTCTCTTC,-0.104
8,AATTCCAT,0.184
9,CGGTCTGC,-0.233
10,CGACGAAA,0.168
11,GATAACCC,-0.0994
12,ATTGTCCC,-0.00073
13,GACTTGGA,-0.0152
14,ACGGTGGC,-0.095
15,AAAGAAGA,0.209
16,CGTTGGAC,-0.335
17,AACGCAGG,-0.176
18,CCGGTATC,-0.0214
19,ACCCGGTG,-0.172
20,CAAATGGC,0.0594
21,ACGATGAA,0.0998
22,ACGACACC,-0.132
23,CATCTCAG,0.0606
24,CATGCAAA,0.0676
25,CAGCTGCG,-0.185
26,GTACTTCA,0.243

row,Sequence,PBM E-score
1,CTATCGAA,0.0256
2,AACCACCG,0.0341
3,ACGCGGAA,0.00139
4,ACCGTAGA,-0.0183
5,CGTACACG,-0.0201
6,AAGGGCGG,-0.293
7,GACATTTA,-0.045
8,CATCATCA,0.136
9,AGCACTCA,-0.00943
10,GGCCAAAA,0.0124
11,AGATGCGG,0.0027
12,CCAACCTA,0.0408
13,CACCATAG,-0.123
14,CATAACAC,0.151
15,ACACAAGC,0.0994
16,TGACTTAA,0.133
17,AAATTCAA,0.288
18,ACACTACT,0.0995
19,CGAATCCC,-0.00902
20,CATCCTAA,0.179
21,GAGAATAC,0.0849
22,CATGACAA,-0.0371
23,CCTCTAGC,-0.24
24,ACGCCATA,-0.00434
25,CAGCCAGG,-0.0718
26,AAGCCGCG,-0.00375

row,Sequence,PBM E-score
1,CCCCGTCC,-0.418
2,CCGCATGA,-0.0371
3,ACTGCCAG,-0.0594
4,GGTCTTAA,-0.199
5,AACACGTG,-0.0196
6,ATACCCAT,0.0822
7,CTTTGTAC,0.0819
8,TCTTGAAA,0.319
9,CTAGGCCA,-0.0702
10,ACATTTGC,0.062
11,ACAGAATG,0.0705
12,AAAACGCA,0.0177
13,GGCCGCTA,-0.193
14,ACAACCCG,-0.0289
15,AATGGACC,-0.0552
16,ATAGTATC,0.234
17,ACCTGATG,-0.216
18,AGCAAGTA,0.119
19,AGGGTTAA,0.0574
20,CTGCTATC,0.147
21,GGTCTTGA,-0.163
22,CTGAGGAA,-0.117
23,AATTCGGG,0.0656
24,AAAGCCAG,-0.0142
25,CCTAGTTA,0.0775
26,CATCGTAG,-0.0533

row,Sequence,PBM E-score
1,CCCACTCA,-0.155
2,GGACCAAA,-0.0745
3,GGCCATAC,-8e-05
4,ACGAGTCC,-0.14
5,ACGCTTAC,-0.0894
6,ATTGTAGC,0.0825
7,CATATCAC,0.116
8,ATCTATCC,0.0719
9,AGGTATCA,-0.073
10,ACGTTACG,0.0785
11,TATCCCAA,0.0156
12,AGACTTAG,-0.058
13,GTAACCCA,0.25
14,ACGACACG,0.0867
15,AGGAACAA,0.402
16,ACTAAGAA,0.124
17,AGTTCGGC,-0.0769
18,TATGAGGA,0.0336
19,TACATTGA,0.148
20,CAAGCCTA,0.113
21,CTTTGGAC,0.0547
22,ATTCTCGG,0.137
23,ACCAACGA,0.0596
24,GTCACCAC,0.00872
25,GCACAAGA,-0.0382
26,TCCCGAGA,0.0347

row,Sequence,PBM E-score
1,CAAGGTCC,-0.134
2,AGCTTTCG,-0.123
3,GCGGGCTA,-0.197
4,ACGAGCAT,0.0245
5,CCGTACTA,0.139
6,GATTACTA,0.193
7,AAACCCCG,0.0476
8,CACTAGCG,-0.174
9,CCAGGGTA,-0.211
10,AAACTCCG,0.17
11,GTATATAC,0.0464
12,ACCTTTAA,0.126
13,TCGACGCA,-0.0992
14,CTGTCATC,-0.0865
15,CATTAAGC,-0.00944
16,CTCGTCCA,0.00704
17,AAGATCGA,0.126
18,GTCATGAA,0.0158
19,AATGTGAT,0.15
20,ACGGTCGC,-0.226
21,AGCGCACC,0.0899
22,GTCGACCA,0.0611
23,GATTCACC,-0.0324
24,AGGCTACT,-0.0319
25,AGGGTGTA,-0.0318
26,AAATGAGG,-0.073

row,Sequence,PBM E-score
1,GCCTCGCC,-0.266
2,ATGTCGAC,0.225
3,AATAGCGC,0.0574
4,CTGGCCCC,-0.151
5,CTACTGGC,-0.052
6,GGTCCACA,-0.265
7,AACACTCG,-0.00476
8,AAAGGACC,-0.213
9,CTCTGAGC,-0.322
10,ATGACCAA,0.0642
11,CTCCAGCA,-0.198
12,CCGAACAC,-0.0155
13,ATTGCTAC,0.0217
14,AAGAGAAT,0.0326
15,TCGTAAGA,-0.0332
16,GTGTAACA,-0.015
17,CGGGAACC,-0.304
18,AAGTGTTC,0.103
19,AAGTATGA,0.0483
